From the supplement of paper PMC4604168 (melanoma cell lines)
Some of the results follow. Most values come without repeats; read them as rough.

Assays:
Assay in all cases: cell count relative to DMSO control; melanoma cells; higher = more viable cells
Settings in all cases: library dose: standard library concentration; 72 h
[1] = test system: 501Mel
[2] = test system: A101D
[3] = test system: A2058
[4] = test system: A375
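Note: cells treated in 1,536-well plates, then fixed and DAPI-stained, with nuclei counted from automated high-throughput microscope images.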

SMILES: Cc1ccc(NC(=O)c2cccc(N(C)C)c2)cc1NC(=O)c1ccc(O)cc1 + CCc1ccc(CCOc2ccc(CC3SC(=O)NC3=O)cc2)nc1 [pioglitazone] (first compound 10 µM, partner dose 10 µM)
- cell count [1]: 71.7%
- cell count [2]: 86.9%
- cell count [3]: 105%
- cell count [4]: 109%

SMILES: CCc1ccc(CCOc2ccc(CC3SC(=O)NC3=O)cc2)nc1 (centres undefined) [pioglitazone] + Oc1cc(-c2nc(-c3ccccc3)[nH]c2-c2ccncc2)ccc1Cl [L779450] (first compound 10 µM, partner dose 1 µM)
- cell count [1]: 67.4%
- cell count [2]: 78.5%
- cell count [3]: 95.2%
- cell count [4]: 91.9%

SMILES: NC(=O)c1ccc(N(C(N)=O)c2c(F)cccc2F)nc1-c1ccc(F)cc1F + O=S(=O)(c1ccccc1)N(CC(F)(F)F)c1ccc(C(O)(C(F)(F)F)C(F)(F)F)cc1 [T0901317] (first compound 2 µM, partner dose 7 µM)
- cell count [1]: 71.6%
- cell count [2]: 92.5%
- cell count [3]: 116%
- cell count [4]: 91.1%

SMILES: NC(=O)c1ccc(N(C(N)=O)c2c(F)cccc2F)nc1-c1ccc(F)cc1F + O=C1NC(=O)/C(=C/c2ccc(-c3ccc(F)cc3O)o2)S1 [AS252424] (first compound 2 µM, partner dose 5 µM)
- cell count [1]: 94.8%
- cell count [2]: 100%
- cell count [3]: 99%
- cell count [4]: 150%

SMILES: COc1cc2c(Oc3ccc4[nH]c(C)cc4c3F)ncnc2cc1OCCCN1CCCC1 [cediranib] + O=S(=O)(c1ccccc1)N(CC(F)(F)F)c1ccc(C(O)(C(F)(F)F)C(F)(F)F)cc1 [T0901317] (first compound 2 µM, partner dose 7 µM)
- cell count [1]: 63.1%
- cell count [2]: 83%
- cell count [3]: 90.2%
- cell count [4]: 128%

SMILES: CN(NC(=O)CC(=O)NN(C)C(=S)c1ccccc1)C(=S)c1ccccc1 + Cc1cc([N+](=O)[O-])ccc1NS(=O)(=O)c1cc(Cl)ccc1Cl [FH535] (first compound 0.03 µM, partner dose 5 µM)
- cell count [1]: 0.542%
- cell count [2]: 35.1%
- cell count [3]: 7.9%
- cell count [4]: 96.6%

SMILES: CC(C)(C)c1cnc(CSc2cnc(NC(=O)C3CCNCC3)s2)o1 + O=C(O)C(=O)Nc1sc2c(c1C(=O)O)CCNC2 [TCS401] (first compound 0.05 µM, partner dose 8.33333 µM)
- cell count [1]: 89.7%
- cell count [2]: 76.2%
- cell count [3]: 94.8%
- cell count [4]: 165%

SMILES: CCc1ccc(CCOc2ccc(CC3SC(=O)NC3=O)cc2)nc1 (centres undefined) [pioglitazone] + Oc1nc(-c2ccc(C(F)(F)F)cc2)nc2c1CSCC2 [XAV939] (first compound 10 µM, partner dose 10 µM)
- cell count [1]: 102%
- cell count [2]: 68.2%
- cell count [3]: 76.2%
- cell count [4]: 98.7%

SMILES: NC(=O)c1ccc(N(C(N)=O)c2c(F)cccc2F)nc1-c1ccc(F)cc1F + CCCCCCCCCCCC1=C(O)C(=O)C=C(O)C1=O [Embelin] (first compound 2 µM, partner dose 6 µM)
- cell count [1]: 96.3%
- cell count [2]: 102%
- cell count [3]: 95.7%
- cell count [4]: 106%

SMILES: CC(C)(C)c1cnc(CSc2cnc(NC(=O)C3CCNCC3)s2)o1 + Oc1nc(-c2ccc(C(F)(F)F)cc2)nc2c1CSCC2 [XAV939] (first compound 0.05 µM, partner dose 10 µM)
- cell count [1]: 82.9%
- cell count [2]: 77.3%
- cell count [3]: 79.1%
- cell count [4]: 84%

SMILES: CC(C)(C)c1cnc(CSc2cnc(NC(=O)C3CCNCC3)s2)o1 + c1cc(-c2cnn3cc(-c4ccc(OCCN5CCCCC5)cc4)cnc23)ccn1 [Dorsomorphin] (first compound 0.05 µM, partner dose 2 µM)
- cell count [1]: 29.3%
- cell count [2]: 13.6%
- cell count [3]: 27.9%
- cell count [4]: 62.8%

SMILES: CN(NC(=O)CC(=O)NN(C)C(=S)c1ccccc1)C(=S)c1ccccc1 + O=C1NC(=O)/C(=C/c2ccc(-c3ccc(F)cc3O)o2)S1 [AS252424] (first compound 0.03 µM, partner dose 5 µM)
- cell count [1]: 13.6%
- cell count [2]: 61.2%
- cell count [3]: 17.8%
- cell count [4]: 158%

SMILES: CCc1ccc(CCOc2ccc(CC3SC(=O)NC3=O)cc2)nc1 (centres undefined) [pioglitazone] + CCN(CC)CCCCNc1ncc2cc(-c3cc(OC)cc(OC)c3)c(NC(=O)NC(C)(C)C)nc2n1 [PD173074] (first compound 10 µM, partner dose 0.5 µM)
- cell count [1]: 92.2%
- cell count [2]: 91.9%
- cell count [3]: 86.2%
- cell count [4]: 107%

SMILES: NC(=O)c1ccc(N(C(N)=O)c2c(F)cccc2F)nc1-c1ccc(F)cc1F + O=c1cc(-c2cccc3c2Sc2ccccc2S3)oc(N2CCOCC2)c1 [KU55933] (first compound 2 µM, partner dose 5 µM)
- cell count [1]: 80.6%
- cell count [2]: 74%
- cell count [3]: 100%
- cell count [4]: 132%

SMILES: NC(=O)c1ccc(N(C(N)=O)c2c(F)cccc2F)nc1-c1ccc(F)cc1F + Cn1cc(/C=C2\C(=O)Nc3cccnc32)c2ccccc21 [GW441756] (first compound 2 µM, partner dose 2 µM)
- cell count [1]: 74.8%
- cell count [2]: 95.3%
- cell count [3]: 95.1%
- cell count [4]: 165%

SMILES: COc1cc2c(Oc3ccc4[nH]c(C)cc4c3F)ncnc2cc1OCCCN1CCCC1 [cediranib] + Cc1cc([N+](=O)[O-])ccc1NS(=O)(=O)c1cc(Cl)ccc1Cl [FH535] (first compound 2 µM, partner dose 5 µM)
- cell count [1]: 67.3%
- cell count [2]: 76.9%
- cell count [3]: 83.1%
- cell count [4]: 83.5%

SMILES: CN(NC(=O)CC(=O)NN(C)C(=S)c1ccccc1)C(=S)c1ccccc1 + COc1cc(N2CCC(N3CCN(C)CC3)CC2)ccc1Nc1ncc(Cl)c(Nc2ccccc2S(=O)(=O)C(C)C)n1 [NVP-TAE684] (first compound 0.03 µM, partner dose 0.4 µM)
- cell count [1]: 0.672%
- cell count [2]: 54.7%
- cell count [3]: 6.73%
- cell count [4]: 80.9%

SMILES: COc1cc2c(Oc3ccc4[nH]c(C)cc4c3F)ncnc2cc1OCCCN1CCCC1 [cediranib] + N#Cc1c(O)c2c(-c3ccc(-c4ccccc4O)cc3)csc2[nH]c1=O [A769662] (first compound 2 µM, partner dose 10 µM)
- cell count [1]: 76.2%
- cell count [2]: 106%
- cell count [3]: 96.2%
- cell count [4]: 155%

SMILES: CC(C)(C)c1cnc(CSc2cnc(NC(=O)C3CCNCC3)s2)o1 + COc1ccc2c(c1)CCC1C2CCC2(C)C(NCCCCCCN3C(=O)C=CC3=O)CCC12 [U73122] (first compound 0.05 µM, partner dose 2 µM)
- cell count [1]: 78.2%
- cell count [2]: 85.8%
- cell count [3]: 76.1%
- cell count [4]: 78.9%

SMILES: CN(NC(=O)CC(=O)NN(C)C(=S)c1ccccc1)C(=S)c1ccccc1 + Oc1cc(-c2nc(-c3ccccc3)[nH]c2-c2ccncc2)ccc1Cl [L779450] (first compound 0.03 µM, partner dose 1 µM)
- cell count [1]: 10.8%
- cell count [2]: 30.4%
- cell count [3]: 10.2%
- cell count [4]: 87.5%

SMILES: CCc1ccc(CCOc2ccc(CC3SC(=O)NC3=O)cc2)nc1 (centres undefined) [pioglitazone] + COc1cc2ncnc(Nc3ccc(Oc4ccccc4)cc3)c2cc1OC [SrcI1] (first compound 10 µM, partner dose 10 µM)
- cell count [1]: 70.6%
- cell count [2]: 68.4%
- cell count [3]: 90.6%
- cell count [4]: 160%

SMILES: CCCCCCCCc1ccc(CCC(N)(CO)CO)cc1 [fingolimod] + COc1ccc(-c2ccc3c(N4CCOCC4)nc(N4C[C@@H](C)O[C@@H](C)C4)nc3n2)cc1CO [KU0063794] (first compound 10 µM, partner dose 0.1 µM)
- cell count [1]: 1.15%
- cell count [2]: 1.79%
- cell count [3]: 2.76%
- cell count [4]: 24.7%

SMILES: CCCCCCCCc1ccc(CCC(N)(CO)CO)cc1 [fingolimod] + c1cc(-c2cnn3cc(-c4ccc(OCCN5CCCCC5)cc4)cnc23)ccn1 [Dorsomorphin] (first compound 10 µM, partner dose 2 µM)
- cell count [1]: 0.962%
- cell count [2]: 7.67%
- cell count [3]: 5.95%
- cell count [4]: 69.7%

SMILES: NC(=O)c1ccc(N(C(N)=O)c2c(F)cccc2F)nc1-c1ccc(F)cc1F + COc1cc2ncnc(Nc3ccc(Oc4ccccc4)cc3)c2cc1OC [SrcI1] (first compound 2 µM, partner dose 10 µM)
- cell count [1]: 78.8%
- cell count [2]: 55%
- cell count [3]: 85.6%
- cell count [4]: 119%

SMILES: Cc1ccc(NC(=O)c2cccc(N(C)C)c2)cc1NC(=O)c1ccc(O)cc1 + COC(=O)c1sccc1S(=O)(=O)Nc1ccc(Nc2ccccc2)cc1OC [GSK0660] (first compound 10 µM, partner dose 5 µM)
- cell count [1]: 74%
- cell count [2]: 92.5%
- cell count [3]: 83%
- cell count [4]: 81%

SMILES: COc1cc2c(Oc3ccc4[nH]c(C)cc4c3F)ncnc2cc1OCCCN1CCCC1 [cediranib] + COc1cc(N2CCC(N3CCN(C)CC3)CC2)ccc1Nc1ncc(Cl)c(Nc2ccccc2S(=O)(=O)C(C)C)n1 [NVP-TAE684] (first compound 2 µM, partner dose 0.4 µM)
- cell count [1]: 50.6%
- cell count [2]: 81.3%
- cell count [3]: 71.5%
- cell count [4]: 78.4%

SMILES: CCCCCCCCc1ccc(CCC(N)(CO)CO)cc1 [fingolimod] + Oc1cc(-c2nc(-c3ccccc3)[nH]c2-c2ccncc2)ccc1Cl [L779450] (first compound 10 µM, partner dose 1 µM)
- cell count [1]: 0.597%
- cell count [2]: 4.97%
- cell count [3]: 4.38%
- cell count [4]: 83.7%

SMILES: Cc1ccc(NC(=O)c2cccc(N(C)C)c2)cc1NC(=O)c1ccc(O)cc1 + COc1ccc(COc2ccc(Cc3cnc(N)nc3N)cc2OC)cc1 [GW2580] (first compound 10 µM, partner dose 5 µM)
- cell count [1]: 62.2%
- cell count [2]: 109%
- cell count [3]: 75.8%
- cell count [4]: 64.9%

SMILES: CC(C)(C)c1cnc(CSc2cnc(NC(=O)C3CCNCC3)s2)o1 + COc1ccc(COc2ccc(Cc3cnc(N)nc3N)cc2OC)cc1 [GW2580] (first compound 0.05 µM, partner dose 5 µM)
- cell count [1]: 107%
- cell count [2]: 62.8%
- cell count [3]: 105%
- cell count [4]: 83.2%

SMILES: CCc1ccc(CCOc2ccc(CC3SC(=O)NC3=O)cc2)nc1 (centres undefined) [pioglitazone] + COc1ccc(COc2ccc(Cc3cnc(N)nc3N)cc2OC)cc1 [GW2580] (first compound 10 µM, partner dose 5 µM)
- cell count [1]: 108%
- cell count [2]: 75.6%
- cell count [3]: 105%
- cell count [4]: 87.4%

SMILES: CN(NC(=O)CC(=O)NN(C)C(=S)c1ccccc1)C(=S)c1ccccc1 + COc1ccc(-c2ccc3c(N4CCOCC4)nc(N4C[C@@H](C)O[C@@H](C)C4)nc3n2)cc1CO [KU0063794] (first compound 0.03 µM, partner dose 0.1 µM)
- cell count [1]: 4.96%
- cell count [2]: 62.6%
- cell count [3]: 16.4%
- cell count [4]: 95.4%
